Some entries of the source have several records that differ or are many. This is not the full list of results. An entry can have further records. Results that share an entry are repeats (runs, samples, wells, individuals or studies). Signs of the kind (2×) count equal records among those shown. Marks such as [2022-09] give the month of the run.
Test system: 292921-168-R-J2-PDC complex spheroid growth
Experiment: Anticancer human tumor 292921-168-R-J2-PDC patient-derived pancreatic carcinoma cell line growth inhibition [AhR]
Details: for viability, T/C: compound alone 3.16 µM, stronger effect = lower value; for IC50: compound alone
Source text: Multicellular complex tumor spheroid response to aryl hydrocarbon receptor antagonists in combination with a variety of drugs and investigational agents in selected tumor cell lines
The current study was undertaken to assess response to aryl hydrocarbon receptor antagonists in combination with standard-of-care drugs and investigational agents in solid tumor complex spheroid models. Complex spheroids include a stromal component modeled by human endothelial cells (HUVEC) and fibroblasts modeled by human mesenchymal stem cells (MSCs). The concentration ranges selected for each drug and investigational agent were based upon clinically achievable concentrations if the clinical Cmax of the agent was known.
Compounds. The drugs and investigational agents: BAY 2416964 (NSC825713), GNF351 (NSC835774), CH-223191 (NSC835775), CPI-455 (NSC825282), aza-TdCyd (NSC777586), decitabine (NSC127716), belinostat (NSC758774), entinostat (NSC756642), pevonedistat (NSC761192), tazemetostat (NSC777109), talazoparib (NSC765396), olaparib (NSC753686), selinexor (NSC780203), nedisertib (M3814, NSC802822), bortezomib (NSC756655), venetoclax (NSC766270), doxorubicin (NSC123127), elimusertib (BAY189344, NSC800525), ceralasertib (AZD6738, NSC777638), TAK-243 (NSC785004), alisertib (NSC759677), etoposide (NSC141540), topotecan (NSC609699), eribulin (NSC707389), gemcitabine (NSC613327), carboplatin (NSC241240), cisplatin (NSC119875), and SN-38 (NSC673596) were obtained from the National Cancer Institute (NCI) Developmental Therapeutics Program Chemical Repository (32). The FDA-approved anticancer drug set is available from the Developmental Therapeutics Program at https://dtp.cancer.gov/organization/dscb/obtaining/available plates.htm. […] The stock solutions were prepared in dimethyl sulfoxide (DMSO, Sigma-Aldrich, St. Louis, MO, cat. D2650), except for the platinum compounds which were prepared in saline (Quality Biological, Gaithersburg, MD, cat. 114-055-101), at 800-fold the tested concentration and stored at -70 degrees C prior to their use. All drugs and investigational agents were tested over a range starting from a high concentration at or near the clinical Cmax and decreasing in half-log increments. If the clinical Cmax for an agent had not been determined, the highest concentration tested was 10 microM (Table 1).
Cell Culture. All cells were maintained in an incubator at 37 degrees C and 5% CO2 with 95% humidity. The PDC lines were cultured according to standard operating procedures established by the NCI PDMR (https://pdmr.cancer.gov). […]
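Note: spheroids exposed to compounds for seven days after three days of growth.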

| Structure (SMILES) | viability, T/C | IC50 (combination with AhR antagonist, run of 06/06/2022) | IC50 |
| --- | --- | --- | --- |
| Cc1ccccc1N=Nc1ccc(NC(=O)c2ccnn2C)c(C)c1 | 71.6, 87, 69.9, 73.7 (2×), 70.4, 69.3, 62.5, 78.8, 61.7, 67.4, 68.9, 80.4, 69.1, 74, 76, 74.1, 80.7, 72.7, 74.5% | – | – |
| Cc1cncc(-c2nc(NCCc3c[nH]c4ccccc34)c3ncn(C(C)C)c3n2)c1 | 68.3, 75.6, 66.9, 65.1, 66.4, 64.4, 65.2, 62.9, 70.7, 61.5, 63.4 (2×), 69.3, 70.1 (2×), 73.3, 64.1, 48.5, 60.5, 72.9% | 7.99 µM, 9.44 µM, 6.82 µM, 8.27 µM, 6.96 µM, 8.62 µM, 7.14 µM, 6.53 µM, 7.08 µM, 6.83 µM, 9.18 µM, 9.06 µM, > 10 µM, 7.68 µM, 6.97 µM, 3.07 µM, 8.93 µM, 9.04 µM, 6.54 µM, 8.37 µM, 6.4 µM | – |
| COc1cc(Nc2ncc3c(n2)-c2ccc(Cl)cc2C(c2c(F)cccc2OC)=NC3)ccc1C(=O)O | – | – | 58.2 nM [2022-05] and 3.6 µM, 31.6 nM [2022-06] |

Reference: PubChem BioAssay AID1918994 (Molecular Pharmacology Branch, DTP, NCI, 2023)
